Reference: PubChem BioAssay AID463173 (ICCB-Longwood Screening Facility, Harvard Medical School, 2010)
In all, about 52,000 compounds went through this assay and about 4,300 (8.3%) were called active. Cut-off read from the data, not from the text of the source: active = survival mostly below about 52% (no sharp cut-off); inactive = mostly above about 56%. Some of the results follow.

system: DeltatarO mutant; assay: S. aureus survival, RN4220 and DeltatarO strains – OD600, teichoic acid synthesis inhibitors, primary screen (AID 463173); settings: S. aureus RN4220 wild type/DeltatarO growth, OD600, 18 h, hits give low values, screened at 18.75 µg/mL (by protocol)

Structure (SMILES) | survival
CCC(C)(C)c1nnc(N)s1 | inactive: 84%
COc1ccc(C(=O)Nc2ccc(OCc3cc(=O)n4ccccc4n3)cc2)cc1 | inactive: 81%
COC(=O)c1c(NC(=O)COc2cc(C)c(Cl)c(C)c2)sc2c1CCCC2 | inactive: 147%
COc1ccc(OC)c(S(=O)(=O)Nc2cc3c(C(C)=O)c(C)oc3c3ccccc23)c1 | inactive: 52%
COc1ccc(-c2cc(C(F)(F)F)nc(SCCC(=O)Nc3cc(C)on3)n2)cc1 | inactive: 86%
CCOc1ccc(NS(=O)(=O)c2ccc3c(c2)CCN3C(C)=O)cc1 | inactive: 127%
CC(=O)N1C(Nc2ccc(Cl)cc2)CCN1c1ccccc1 (stereo unspecified) | inactive: 103%
CC(Oc1ccc(F)cc1)C(=O)Nc1cc(-c2ccc(F)c(F)c2)no1 (stereo unspecified) | inactive: 59%
Cc1ccc(OCC(=O)N(Cc2ccco2)C2CCS(=O)(=O)C2)cc1 (stereo unspecified) | inactive: 87%
CCOC(=O)c1ccc(S(=O)(=O)N2CCC(C(=O)OCC)CC2)cc1 | inactive: 86%
CN(C)CCC(=O)c1ccc2c(c1)OCO2 | inactive: 88%
COc1ccccc1NC(=O)c1oc2ccccc2c1NC(=O)c1ccccc1C(F)(F)F | inactive: 82%
CCOc1ccccc1NC(=O)C(C)Sc1nc(-c2ccccc2)c(C#N)c(=O)[nH]1 (stereo unspecified) | inactive: 80%
Brc1cccc(Nc2nc3nonc3nc2NCc2ccco2)c1 | active: 6%
Cc1cccc(NC(=O)c2sc3nc4c(cc3c2N)CN(Cc2ccccc2)CC4)c1 | inactive: 85%
COc1ccc(-c2cn3nc(N4CCC(C(=O)Nc5cccc(OC)c5)CC4)sc3n2)cc1 | inactive: 94%
CCOc1ccc(Sc2cc(C(=O)NC(C)CC)c3ccccc3n2)cc1 (stereo unspecified) | inactive: 124%
COc1ccc(N2CCN(S(=O)(=O)c3ccc(OC)c(-c4noc(C)n4)c3)CC2)cc1 | inactive: 68%
O=C(Cn1ncc2c3ccccc3n(Cc3ccc(Cl)cc3)c2c1=O)NCc1cccs1 | inactive: 90%

Structure (SMILES) | survival
Cc1nc2sc(C(=O)Nc3ccc(F)cc3)c(N)c2c(-c2ccc(Br)cc2)c1C(=O)Nc1ccc(Cl)cc1 | inactive: 80%
CC(C)C(=O)N1CCC(CN=CC2=C(O)CC(C)(C)CC2=O)CC1 | active: 52%
COC(=O)c1ccc(NC(=O)CC2C(=O)N(c3ccc(F)cc3)C(=O)N2Cc2ccc(OC)cc2)cc1 (stereo unspecified) | inactive: 126%
Cc1cc2nc(-c3ccc(OCc4ccc(F)cc4)cc3)cc(C(F)(F)F)n2n1 | active: 34%
O=C(Nc1ccc(NC(=O)c2cccs2)cc1)c1cccc(Br)c1 | inactive: 98%
Cc1ccc(C)c(Cn2c(=O)n(Cc3ccc4c(c3)OCO4)c(=O)c3oc4ccccc4c32)c1 | inactive: 89%
CCCCOc1ccc(C(=O)NCCc2sc(-c3cccc(F)c3)nc2C)cc1 | inactive: 74%
Cc1ccc(C)n1-c1c(C(=O)NCCCN2CCN(c3ccc(F)cc3)CC2)sc2ncccc12 | inactive: 98%
O=C(C1CCN(S(=O)(=O)Cc2ccccc2)CC1)N1CCN(c2ccc(F)cc2)CC1 | inactive: 75%
Cc1ccc2c(=O)cc(C(=O)Nc3sc4c(c3C(N)=O)CCCC4)oc2c1 | inactive: 85%
Cc1ccc(Cl)cc1-n1ncc2c(NCCCn3ccnc3)ncnc21 | inactive: 81%
O=c1cc(-c2ccc(F)cc2)nc(SCc2nc(-c3cccc(Cl)c3)no2)[nH]1 | inactive: 71%
Cc1cc(NC(=O)CSc2nc3c([nH]c4ccccc43)c(=O)n2-c2ccccc2)no1 | inactive: 72%
O=C(C1CCCN(S(=O)(=O)c2ccc(Br)s2)C1)N1CCN(c2ccc(F)cc2)CC1 (stereo unspecified) | inactive: 75%
CCc1ccc(NC(=O)CSc2nccn2-c2cccc(C)c2C)cc1 | inactive: 87%
CC1CN(C(=O)N2CCC(C(=O)NCCC3=CCCCC3)CC2)c2cc(Cl)ccc2O1 (stereo unspecified) | inactive: 65%
Cc1ccc(C2CC(=O)N(Cc3ccccc3)c3c2c(C)nn3-c2nc(C)cc(C)n2)cc1 (stereo unspecified) | inactive: 86%
COc1ccc(NC(=O)CSc2nc3ccncc3[nH]2)c(OC)c1 | inactive: 95%
CCC(C(=O)N1CCN(c2ccccc2F)CC1)n1nc(C)c2sc3ccccc3c2c1=O (stereo unspecified) | inactive: 53%

Structure (SMILES) | survival
COc1ccc(NC(=O)CCn2nc(-c3ccccc3OC)c3c(C)cc(C)nc32)cc1 | inactive: 70%
Cc1ccc(Cl)cc1N1CCN(C(=O)c2cccn3c(=O)c4cc(Cl)ccc4nc23)CC1 | inactive: 75%
Cc1ccccc1OCc1ccc(-c2nc(C#N)c(N3CCN(C)CC3)o2)o1 | inactive: 68%
Cc1ccc(-n2nc(C(=O)Nc3ccc(Cl)cn3)c3c4ccccc4n(C)c3c2=O)cc1 | inactive: 130%
CC1=C(C(=O)OCC(C)C)C(c2ccc(OCc3ccccc3)cc2)N2C(=O)CCSC2=N1 (stereo unspecified) | inactive: 52%
COc1ccc(C2C(=O)N(C3CCCCC3)CC(=O)N2CCc2ccc(OC)c(OC)c2)cc1 (stereo unspecified) | inactive: 87%
Cc1ccc(C)c(CN2C(=O)C3(c4ccccc42)N(c2cccc(C(F)(F)F)c2)C(=O)CS3(=O)=O)c1 (stereo unspecified) | inactive: 71%
Cc1ccc2oc(-c3cc(NC(=O)c4ccc5c(c4)OCCO5)cc(C)c3O)nc2c1 | inactive: 89%
COc1cc(NC(=O)c2nc3ccccc3nc2C)cc(OC)c1OC | inactive: 84%
CCOC(=O)c1cc(C)n(CC2CCC(C(=O)Nc3ccc(OCC)cc3)CC2)c1C (stereo unspecified) | inactive: 115%
NS(=O)(=O)c1ccc(Nc2nc3nonc3nc2Nc2ccc(S(N)(=O)=O)cc2)cc1 | inactive: 122%
CCn1c(-c2ccccc2)n[nH]c1=S | inactive: 98%
COc1ccc2c(c1)-c1nc(NC(=O)c3ccccc3F)sc1CC2 | active: 2%
CCN(CC)C(=O)c1sc2c(c1C)c(=O)n(-c1ccc(C)c(C)c1)c(=O)n2Cc1cc(=O)n2c(C)cccc2n1 | inactive: 49%
CCn1c(=O)cc(OCC(=O)NCc2ccccc2Cl)c2ccccc21 | active: 40%
COc1cccc(CNC(=O)C(NS(=O)(=O)c2ccc3c(c2)oc(=O)n3C)C(C)C)c1 (stereo unspecified) | inactive: 93%
c1cc2c3c(cccc3c1)NC1(CCCCC1)N2 | inactive: 113%
COc1ccc(O)c(C2Nc3ccccc3-n3c(-c4ccccc4)c4c(=O)n(C)c(=O)n(C)c4c32)c1 (stereo unspecified) | active: 3%
